# Source: publication PMC6919601, “Identification of Plasmodium dipeptidyl aminopeptidase allosteric inhibitors by high throughput screening” (PLoS ONE, 2019)
# Screen size: about 110,000 compounds; about 230 (0.21%) showed an effect of 50% or more. This is one part of the list.
# Target: DPAP1 (Plasmodium falciparum, UniProt Q8IIJ9)
# Test: primary screen, percent inhibition; read by cleavage of a fluorogenic dipeptide substrate; higher = more effect of the substance
# Set-up: species or system P. falciparum D10 trophozoite lysates; single well
# 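Also: 30 min substrate incubation versus DMSO and 10 µM JCP410 controls.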
# Chain of DPAP1 (Q8IIJ9 whole entry, looked up): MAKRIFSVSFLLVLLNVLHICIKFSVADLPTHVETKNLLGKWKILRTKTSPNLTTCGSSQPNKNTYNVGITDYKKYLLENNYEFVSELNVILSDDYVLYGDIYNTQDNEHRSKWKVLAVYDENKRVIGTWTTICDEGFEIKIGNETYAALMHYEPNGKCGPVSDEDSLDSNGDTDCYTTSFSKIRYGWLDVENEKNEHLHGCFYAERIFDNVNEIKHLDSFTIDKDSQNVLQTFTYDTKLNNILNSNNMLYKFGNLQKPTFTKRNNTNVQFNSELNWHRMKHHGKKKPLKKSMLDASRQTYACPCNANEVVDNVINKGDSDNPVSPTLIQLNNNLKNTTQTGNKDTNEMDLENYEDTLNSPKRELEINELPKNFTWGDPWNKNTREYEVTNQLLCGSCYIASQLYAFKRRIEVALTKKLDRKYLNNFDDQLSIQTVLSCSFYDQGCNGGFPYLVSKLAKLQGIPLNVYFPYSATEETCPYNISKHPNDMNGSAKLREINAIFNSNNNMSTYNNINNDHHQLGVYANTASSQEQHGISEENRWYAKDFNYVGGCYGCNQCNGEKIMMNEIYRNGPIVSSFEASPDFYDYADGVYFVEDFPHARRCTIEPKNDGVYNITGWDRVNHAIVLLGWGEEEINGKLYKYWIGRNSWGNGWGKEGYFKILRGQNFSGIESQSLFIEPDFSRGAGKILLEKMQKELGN
row,Compound,% Inhibition @ 10 uM [%]
1,Cc1ccc(CSc2nc3ccc(C(=O)NCCN4CCCC4)cc3n2C)cc1,3.13
2,COCCCNc1nc2c(S(=O)(=O)c3ccccc3)nnn2c2ccsc12,-2.85
3,Cc1cccc(C(=O)Nc2ccc(C)cc2[N+](=O)[O-])c1,0.135
4,CC1=NN(C(=O)c2ccc(N)cc2)C(O)(c2ccc(Cl)cc2)C1 (stereo not shown),6.82
5,O=C1c2ccccc2C(Nc2cccnc2)N1c1cccnc1 (stereo not shown),-1.03
6,CCn1c(O)nc2ccc3c(c21)C(=O)c1ccccc1C3=O,-1.82
7,COc1ccc(C2=N/C(=C/c3ccc(F)cc3)C(=O)O2)cc1Br,1.45
8,CCOc1ccccc1C(=O)Nc1cccc(-c2nc3ccccc3o2)c1,1.03
9,CC1=CN2C(=O)C(Cc3ccccc3)(NC(=O)c3ccccc3)N=C2C=C1 (stereo not shown),1.03
10,O=C(NCCc1ccccc1)Nc1cccc(Cl)c1,-8.76
11,CCc1ccccc1Oc1coc2cc(OC)ccc2c1=O,-2.98
12,COCCCNC(=O)CN(c1ccc(C)c(Cl)c1)S(C)(=O)=O,-7.84
13,CCc1ccc(-n2nc(C)c3c(C(F)(F)F)cc(=O)n(CC(=O)N4CCOCC4)c32)cc1,2.14
14,CCOC(=O)c1[nH]c(C)c(C(=O)CCc2ccccc2)c1C,-0.693
15,O=C(c1ccco1)N1CCN(C(=O)c2cnn(-c3ccccc3)c2-n2cccc2)CC1,1.8
16,CCOC(=O)c1cc(S(=O)(=O)NCC2CCCO2)cn1C (stereo not shown),0.655
17,Cc1n[nH]c(C)c1CCCOc1ccc(Cl)cc1,-6.82
18,CCN1CCN(c2nc3c(S(=O)(=O)c4ccccc4)nnn3c3ccccc23)CC1,0.49
19,Cc1cc(Br)ccc1NC(=O)C1CC(=O)N(c2ccccc2)C1 (stereo not shown),4.11
20,C=CCOc1ccc(C(=O)C2=C(O)C(=O)N(CCCN(C)C)C2c2ccc(OC)cc2)c(C)c1 (stereo not shown),-1.93
21,CCn1nc(-c2cc(Br)ccc2F)nc2c(=O)n(C)c(=O)nc1-2,5.29
22,Cc1cc(O)c(C2=Nc3ccccc3SC(c3ccsc3)C2)c(=O)o1 (stereo not shown),0.986
23,O=C(c1sc2ccccc2c1Cl)N1CCN(Cc2ccccc2)CC1,0.51
24,Nc1nonc1C(=O)NCCNCc1ccccc1OCc1ccccc1F,1.67
25,COc1cc(OC)cc(-c2cc3nc(C4CCNCC4)cc(O)n3n2)c1,-1.03
26,Cc1ccc(CNC(=O)c2ccc(Cl)cc2Cl)cc1,5.01
27,CCc1nnc(NC(=O)c2cc(=O)c3ccc(C)cc3o2)s1,1.9
28,CC1=C(c2ccc(C(C)C)cc2)S(=O)(=O)N=C1NC(C)C12CC3CC(CC(C3)C1)C2 (stereo not shown),5.42
